Publication PMC4336329 (PLoS ONE, 2015)
Screen size: about 310,000 compounds; about 2,200 (0.71%) showed an effect of 50% or more. Effects have a minus sign here. Some of the results follow.

Biological target: human ether-à-go-go-related gene (hERG) potassium channel (human, UniProt Q12809)
Test: primary screen, population patch clamp on CHO cells stably expressing hERG

human ether-à-go-go-related gene (hERG) potassium channel, sequence (Q12809 whole entry, looked up): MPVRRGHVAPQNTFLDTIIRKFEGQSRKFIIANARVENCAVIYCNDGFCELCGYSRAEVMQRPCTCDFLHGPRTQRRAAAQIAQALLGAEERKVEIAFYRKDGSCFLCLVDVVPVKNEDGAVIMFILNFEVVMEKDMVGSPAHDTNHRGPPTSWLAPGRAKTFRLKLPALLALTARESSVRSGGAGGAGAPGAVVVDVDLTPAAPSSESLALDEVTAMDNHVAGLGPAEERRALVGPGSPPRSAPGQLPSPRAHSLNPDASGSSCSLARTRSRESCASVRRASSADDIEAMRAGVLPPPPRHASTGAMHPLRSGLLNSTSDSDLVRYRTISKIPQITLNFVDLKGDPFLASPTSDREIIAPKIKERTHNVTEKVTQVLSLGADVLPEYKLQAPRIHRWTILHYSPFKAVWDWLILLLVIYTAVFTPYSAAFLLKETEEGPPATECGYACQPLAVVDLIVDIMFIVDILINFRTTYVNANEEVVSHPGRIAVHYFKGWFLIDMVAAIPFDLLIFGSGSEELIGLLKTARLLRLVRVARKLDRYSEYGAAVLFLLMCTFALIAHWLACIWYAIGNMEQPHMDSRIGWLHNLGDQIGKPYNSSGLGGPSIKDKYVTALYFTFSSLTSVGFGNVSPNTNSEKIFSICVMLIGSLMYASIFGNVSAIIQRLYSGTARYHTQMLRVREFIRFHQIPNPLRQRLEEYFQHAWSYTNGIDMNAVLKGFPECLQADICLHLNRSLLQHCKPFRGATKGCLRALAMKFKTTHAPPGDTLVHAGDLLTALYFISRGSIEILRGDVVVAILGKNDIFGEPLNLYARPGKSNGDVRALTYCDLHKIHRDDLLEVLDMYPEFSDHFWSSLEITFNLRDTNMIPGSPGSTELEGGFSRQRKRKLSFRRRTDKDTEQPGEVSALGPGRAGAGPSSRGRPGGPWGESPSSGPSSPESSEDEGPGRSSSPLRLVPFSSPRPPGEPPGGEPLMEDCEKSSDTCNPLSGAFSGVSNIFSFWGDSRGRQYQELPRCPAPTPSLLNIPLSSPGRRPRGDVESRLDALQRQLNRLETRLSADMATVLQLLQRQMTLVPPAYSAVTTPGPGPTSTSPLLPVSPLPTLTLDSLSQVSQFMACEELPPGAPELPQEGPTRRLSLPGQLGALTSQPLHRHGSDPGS

Row | Compound | hERG current change (%, negative = inhibition) at 1uM
1 | O=C(N/N=C/c1ccccc1F)c1cccc2ccccc12 | 9.02%
2 | CC(C)NC(=O)C(c1ccc(F)cc1)N(C(=O)CCC(=O)Nc1ccccn1)c1cccc(F)c1 (stereo not drawn) | 10.9%
3 | CC1(C)CC(=O)C2=C(C1)N1C(=C(C#N)C2c2ccc(Cl)cc2)N=C(N)c2ccccc21 (stereo not drawn) | 0.0227%
4 | O=C1[C@@H]2C(c3cccnc3)=NO[C@@H]2C(=O)N1c1ccc2ccccc2c1 | 14%
5 | O=C(NC1CCN(Cc2ccccc2)CC1)c1ccc(Oc2cc(Cl)cc(Cl)c2)o1 | 9.24%
6 | CC(C)Cc1nnc(NC(=O)CCC(=O)N2CCN(c3ccccc3)CC2)s1 | 9.93%
7 | Cn1nc(C(=O)Nc2cccc(Cl)c2)cc1C(=O)Nc1cccc(Cl)c1 | 15.3%
8 | C=CCNC(=O)C(=O)NN=C1CCN(C)CC1 | 5.04%
9 | CC(=O)Nc1ccc(N=c2cc([N+](=O)[O-])cc(Cl)n2O)cc1 | 4.56%
10 | O=C(C[n+]1cccc(CNC(=O)c2ccc(OC(F)F)cc2)c1)Nc1ccccc1Cl.[Cl-] | 3.85%
11 | CCCCNC(=O)CCC(=O)Nc1ccc2nc(N3CCC(C)CC3)cc(C)c2c1 | 2.82%
12 | O=c1nccc(SCc2ccc(Cl)cc2Cl)[nH]1 | 7.61%
13 | CC(C)CNc1nc2c(c(=O)n(C)c(=O)n2C)n1Cc1cccc(Br)c1 | 7.85%
14 | NC(=O)C1CCN(C(=S)NCCc2ccccc2)CC1 | 6.51%
15 | Cc1ccc(N2C(=O)c3ccc(N)cc3C2=O)cc1 | 15.8%
16 | COc1ccc(NC(=O)c2ccc3c(=O)n(-c4ccc(OC)cc4OC)c(=S)[nH]c3c2)c(OC)c1 | 4.14%
17 | C#CCSc1n[nH]c(-c2ccco2)n1 | 12.6%
18 | O=C(CN(Cc1ccco1)C(=O)CCC(=O)Nc1ccccn1)NCCc1ccccc1 | 15.2%
19 | CN1CCN(C(=O)C2=C[C@@H](c3ccc(C(F)(F)F)cc3)C[C@@H](OCCCCO)O2)CC1 | 6.43%
20 | Cc1cc(C)c(/C=N/NC(=O)c2nnn(-c3nonc3N)c2CN2CCC(C)CC2)c(C)c1 | 14.1%
21 | CC(C)(C)c1csc(NC(=O)C2COc3ccccc3O2)n1 (stereo not drawn) | 8.88%
22 | Cc1ccc(C(=O)O)cc1-c1ccc(/C=C2/NC(=O)N(c3ccccc3)C2=O)o1 | 4.13%

Row | Compound | hERG current change (%, negative = inhibition) at 1uM
23 | COc1ccc(NC(=O)C2CC(=O)N(Cc3ccco3)C2)cc1Cl (stereo not drawn) | 9.99%
24 | COc1cc(NC(=S)NCCc2c[nH]c3ccccc23)c(OC)cc1Cl | 10.9%
25 | O=C(CSc1nnc(-c2ccncc2)n1CCc1ccccc1)NCc1ccccc1 | -31.6%
26 | O=C(c1ccc(-n2cnnn2)cc1)N1CCCCC1 | -8.12%
27 | CC(C)C(=O)Nc1c2c(nc3c1CCC3)CCCC2 | 9.87%
28 | Cc1n[nH]c(=O)nc1NCCc1ccccc1 | 21.9%
29 | Cc1ccccc1-c1nsc(SCC(=O)c2ccc(Cl)cc2)n1 | 9.33%
30 | CCN(CC)S(=O)(=O)c1ccc(N2CCOCC2)c(NC(=S)NC(=O)c2ccco2)c1 | -6.76%
31 | COc1cccc2sc(NNC(=O)C3=COCCO3)nc12 | 5.6%
32 | CCC1Oc2ccc(C)cc2N(CC(=O)NCCc2ccc(OC)c(OC)c2)C1=O (stereo not drawn) | -3.1%
33 | O=C(Cc1csc(N2CCOCC2)n1)N/N=C/c1cccc(O)c1 | -2.27%
34 | C/C(CC(=O)NCCN1CCOCC1)=N\NC(=O)c1ccncc1 | 14%
35 | O=C(NCc1ccc(Cl)cc1)c1ccncc1 | 8.5%
36 | CCC(C)NC(=O)C1CCN(S(=O)(=O)N2CCC3(CC2)OCCO3)CC1 (stereo not drawn) | 17.1%
37 | COc1cc2[nH]c(C(=O)N(C)Cc3ccccc3)cc2c(OC)c1OC | 4.9%
38 | Cc1ccc(NC(=S)N(C)Cc2cn(C)c3ccccc23)cc1 | 7.47%
39 | Cn1c(=O)c2c(C(=O)O)cc(-c3ccccc3)nc2n(Cc2ccccc2)c1=O | 16.2%
40 | C/C(=N\N1CCN(C)CC1)c1ccc(OC(F)F)cc1 | 5.48%
41 | COc1ccc(CN(C)C(=O)Cc2ccc(OC)c(S(=O)(=O)N3CCOCC3)c2)cc1OC | 6.69%
42 | CC1CC(C)CN(S(=O)(=O)N2CCC(C(=O)NCCC3=CCCCC3)CC2)C1 (stereo not drawn) | 8.36%
43 | Cc1cc(S(=O)(=O)Nc2cccc([N+](=O)[O-])c2)c(C)s1 | 9.94%
44 | C=CCN(CC=C)C(=S)NC(=O)/C=C/c1ccc(OC)cc1 | 3.77%

Row | Compound | hERG current change (%, negative = inhibition) at 1uM
45 | Cc1cc(C)cc(C(=O)NC(=S)Nc2cccnc2)c1 | -21.1%
46 | S=c1[nH]nc(-c2cc(-c3ccsc3)n[nH]2)n1-c1ccccc1 | 4.95%
47 | CCc1nnc(NC(=O)CSc2ccc(-c3cccs3)nn2)s1 | 5.48%
48 | COCCCn1c(SCC(=O)N2CCOCC2)nc2cc(Cl)ccc2c1=O | -1.66%
49 | Cc1cc2c(cc(C(=O)OC(C(=O)NCc3ccco3)C(C)C)n2C)o1 (stereo not drawn) | 2.13%
50 | COC(=O)c1ccc(OC)c(CSc2nnc(-c3ccc(C(C)(C)C)cc3)o2)c1 | 14.6%
51 | CCC(Sc1nc2ccccc2[nH]1)C(=O)Nc1cc(C)on1 (stereo not drawn) | 11.2%
52 | CC(=O)c1cccc(S(=O)(=O)NCCCN2CCOCC2)c1.Cl | -0.0465%
53 | Cc1cccc(Cn2nc(C)cc2NC(=O)Cn2cc([N+](=O)[O-])cn2)c1 | 4.15%
54 | CC(C)CC(=O)O/N=C1\C(=O)N(Cc2ccc(Cl)cc2)c2ccc([N+](=O)[O-])cc21 | -6.64%
55 | CCCCc1ccc(-c2csc(/C(C#N)=C/c3ccc(C)o3)n2)cc1 | 10.7%
56 | CCOc1ccc(OCC(=O)Nc2ccccc2C(F)(F)F)cc1 | 11.6%
57 | COC(=O)[C@H](NC(=O)c1cc(-c2ccccc2)nc2ccccc12)c1ccccc1 | 13.3%
58 | COc1cccc2[nH]c3c(N4CCC5(CC4)OCCO5)ncnc3c12 | 8.06%
59 | CCCCN(C(=O)c1cc2c(s1)CCCC2)c1c(N)n(CCC)c(=O)[nH]c1=O | 10%
60 | Cc1ccc(C)c2[nH]c(=O)c(C(c3nnnn3C3CCCC3)N3CCOCC3)cc12 (stereo not drawn) | 6.52%
61 | Cc1cc(C)cc(NC(=S)N(Cc2ccc(Br)cc2)Cc2ccc(C(=O)O)cc2)c1 | 10%
62 | O=C(Nc1ccc(C(=O)NCCCN2CCN(c3ccc(F)cc3)CC2)cc1)C1=CSCCO1 | 0.792%
63 | CCOC(=O)CN=C(NS(=O)(=O)c1ccc(Cl)cc1)c1ccccc1 | 8.21%
64 | COc1cccc(CNC(=O)C2CCCN(c3nn4c(=O)cc(C)nc4s3)C2)c1 (stereo not drawn) | 1.31%
65 | Cn1c2c(c(=O)n(C)c1=O)C(c1ccccc1F)C(C#N)=C(N)O2 (stereo not drawn) | 9.61%
66 | CCN(CC)c1ccc(/C=C/C(=O)c2cccnc2)cc1 | 9.65%

Row | Compound | hERG current change (%, negative = inhibition) at 1uM
67 | CSc1ccc(CN2C(=O)NC3(CCCCCCC3)C2=O)cc1 | 6.79%
68 | O=C(O)c1cn(-c2ccccc2)c(=O)c2ccccc12 | 3.59%
69 | O=C1CCC(C(=O)OCc2cc(Cl)ccc2OC(F)F)N1 (stereo not drawn) | 13.4%
70 | COc1cc(CN2CC(=O)N(c3cc(Cl)ccc3C)C2=S)cc(OC)c1OC | 16.5%
71 | CCC(C(=O)NC1CCCC1)N(C(=O)Cn1nnc(-c2ccc(C)o2)n1)C(C)(C)C (stereo not drawn) | 0.794%
72 | CCCSCC(=O)Nc1ncc2c(n1)-c1ccccc1CC2 | 4.05%
73 | COc1ccc(Nc2nc(NCc3ccco3)nc(N/N=C/c3ccccc3)n2)cc1 | 5.05%
74 | Cl.c1ccc(-c2nc(NCCCn3ccnc3)c3oc4ccccc4c3n2)cc1 | 4.89%
75 | CCOC(=O)c1c(C)nc2sc(C(=O)Nc3ccc(C(C)=O)cc3)c(N)c2c1-c1ccc(OC)cc1 | 9.59%
76 | COc1cc(OC)c(N2CC(C(=O)Nc3cc(Cl)ccc3N3CCOCC3)CC2=O)cc1Cl (stereo not drawn) | 6.05%
77 | CCOc1ccccc1NC(=O)NC1CCCCCCC1 | 14%
78 | N#CCCN(C(=O)COc1ccc(C#N)cc1)c1ccc(F)cc1 | -0.0401%
79 | CN1CCN(C2=NC(=O)/C(=C/c3ccccc3OS(=O)(=O)c3ccccc3)S2)CC1 | -21.5%
80 | COc1ccc(NC2CCCN(C(=O)c3ccc(C(C)=O)s3)C2)cc1 (stereo not drawn) | 19.7%
81 | COc1ccc(-n2c(SCC(=O)Nc3ccc4c(c3)OCO4)nnc2C(C)N2CCCCC2)cc1 (stereo not drawn) | -10.7%
82 | Cn1cccc1-c1nc2ccccc2[nH]1 | 7.06%
83 | O=C(O)C1=C[C@H](c2csc3ccccc23)C[C@H](OCCCCO)O1 | 7.74%
84 | CCCC[n+]1c2ccccc2cc2ccccc21.[I-] | 11.5%
85 | Cc1ccc(C)c(NS(=O)(=O)c2cc(C(=O)N3CCc4ccccc4C3)ccc2Cl)c1 | 11.7%
86 | O=C(N/N=C/c1ccc(O)cc1)c1cc(C2CC2)[nH]n1 | 6.41%
87 | O=C(Cn1ccc(NC(=O)OCc2ccccc2)nc1=O)NCc1nc2ccccc2[nH]1 | 15.1%
